Test results reported in the RNAGym collection of RNA variant scans (doi:10.1101/gad.245936.114).
This sample is rich in variants without activity.

B1: tRNA (parent)
chain: CUCUCGGUAGCCAAGUUGGUUUAAGGCGCAAGACUUUAAUUUAUCACUACGAAAUCUUGAGAUCGGGCGUUCGACUCGCCCCCGGGAGAUUUUUUCCUCGAGCAA

Variants of: B1
Assay: nonsense suppression (GFP-seq) (ratio to wild type); higher = more function; SUP4oc tRNA, yeast GFP reporter sort-seq
How it was run: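 To measure nonsense suppression, tRNA variants from a library carrying ~3% random mutations were integrated into the yeast genome alongside RFP and a GFP ochre reporter under galactose control. Growth took place in raffinose/galactose medium supplemented with 80 mg/L adenine, followed by sorting into GFP/RFP bins and Illumina sequencing of each bin (phred ≥30). For each variant with ≥100 reads and ≥30 cells, the bin median GFP/RFP values were weighted by its estimated cell share per bin and referenced to the unmutated parent tRNA.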
Work on U8C U20A yielded a nonsense suppression of 0.0281.
In the case of U8C U20G U76C, the nonsense suppression is reported as no more than 0.026.
With U8C U21C U63C U76G the nonsense suppression was no more than 0.026.
Variant U8C U21G A60U A89C has a nonsense suppression of no more than 0.026.
Variant U8C U21G C29U G73C has a nonsense suppression of no more than 0.026.
U8C U22C C56U G66U C72G showed a nonsense suppression of no more than 0.026.
For U8C U35C A89G, the nonsense suppression was no more than 0.026.
U8C U35G U71A showed a nonsense suppression of no more than 0.026.
U8C U55C U70A A74C showed a nonsense suppression of no more than 0.026.
Work on U8C U55G yielded a nonsense suppression of no more than 0.026.
U8C U57G showed a nonsense suppression of no more than 0.026.
With U8C U58A the nonsense suppression was no more than 0.026.
With U8C U63G the nonsense suppression was no more than 0.026.
Work on U8C U70G A74C G84C yielded a nonsense suppression of 0.0541.
Variant U8G has a nonsense suppression of no more than 0.026.
U8G A9U C83A showed a nonsense suppression of no more than 0.026.
Variant U8G A13C G28C C64U U70A C72U G84U has a nonsense suppression of no more than 0.026.
Variant U8G A13C G66A C81A has a nonsense suppression of no more than 0.026.
In the case of U8G A13C G86A, the nonsense suppression is reported as no more than 0.026.
Variant U8G A13C U63A has a nonsense suppression of no more than 0.026.
For U8G A13U G15U A24U U55A G86A, the nonsense suppression was no more than 0.026.
Work on U8G A14C C75A C81A G86A yielded a nonsense suppression of no more than 0.026.
U8G A14U C83A gave a nonsense suppression of no more than 0.026.
With U8G A14U U20A A62U the nonsense suppression was no more than 0.026.
Variant U8G A14U U57A G67C has a nonsense suppression of no more than 0.026.
U8G A24C showed a nonsense suppression of no more than 0.026.
U8G A24U gave a nonsense suppression of no more than 0.026.
U8G A24U C34G C77G gave a nonsense suppression of no more than 0.026.
For U8G A30G, the nonsense suppression was no more than 0.026.
For U8G A30G C64U C75U G86C, the nonsense suppression was no more than 0.026.
With U8G A30U A54G C83G the nonsense suppression was no more than 0.026.
U8G A30U C75U showed a nonsense suppression of no more than 0.026.
U8G A31U A33G G69A G73U C75A showed a nonsense suppression of no more than 0.026.
Variant U8G A31U G85A has a nonsense suppression of no more than 0.026.
U8G A33C U71A C75G U76A gave a nonsense suppression of no more than 0.026.
With U8G A33G C34A U58G the nonsense suppression was no more than 0.026.
With U8G A33G U57C U58C C77A C79U the nonsense suppression was no more than 0.026.
For U8G A33U A60U C80A, the nonsense suppression was no more than 0.026.
In the case of U8G A54C U58G C72A, the nonsense suppression is reported as no more than 0.026.
For U8G A60G, the nonsense suppression was no more than 0.026.
For U8G A62C G73A G88C, the nonsense suppression was no more than 0.026.
U8G A62C U70C U76C G86U showed a nonsense suppression of no more than 0.026.
In the case of U8G A62U G65A C83U, the nonsense suppression is reported as no more than 0.026.
Variant U8G A74G A89G has a nonsense suppression of no more than 0.026.
In the case of U8G A74U G78A, the nonsense suppression is reported as no more than 0.026.
U8G C11A gave a nonsense suppression of no more than 0.026.
U8G C11A C72A showed a nonsense suppression of no more than 0.026.
For U8G C12A C81U, the nonsense suppression was no more than 0.026.
Variant U8G C12U has a nonsense suppression of no more than 0.026.
U8G C12U C29U A74U G86U showed a nonsense suppression of no more than 0.026.
U8G C12U C75U showed a nonsense suppression of no more than 0.026.
In the case of U8G C27G C82U A87C, the nonsense suppression is reported as no more than 0.026.
In the case of U8G C27U, the nonsense suppression is reported as no more than 0.026.
In the case of U8G C29A G32U, the nonsense suppression is reported as no more than 0.026.
U8G C29G gave a nonsense suppression of no more than 0.026.
With U8G C34A the nonsense suppression was no more than 0.026.
Variant U8G C34G has a nonsense suppression of no more than 0.026.
Work on U8G C56A yielded a nonsense suppression of no more than 0.026.
U8G C64G U70C gave a nonsense suppression of no more than 0.026.
U8G C64U gave a nonsense suppression of no more than 0.026.
For U8G C72A, the nonsense suppression was no more than 0.026.
With U8G C81A the nonsense suppression was no more than 0.026.
U8G G10A C11G C12A gave a nonsense suppression of no more than 0.026.
U8G G10C G66C gave a nonsense suppression of no more than 0.026.
Work on U8G G15A U21C A30G C82A G88C yielded a nonsense suppression of no more than 0.026.
Variant U8G G15U A31U U63A has a nonsense suppression of no more than 0.026.
Work on U8G G18A C34A G67A yielded a nonsense suppression of no more than 0.026.
U8G G18U showed a nonsense suppression of no more than 0.026.
Work on U8G G19A C81A G85A yielded a nonsense suppression of no more than 0.026.
For U8G G25C, the nonsense suppression was no more than 0.026.
U8G G25C A33U gave a nonsense suppression of no more than 0.026.
In the case of U8G G32C A54C, the nonsense suppression is reported as no more than 0.026.
Variant U8G G32C U71C C75G has a nonsense suppression of no more than 0.026.
U8G G32U showed a nonsense suppression of no more than 0.026.
For U8G G32U U55A A87G, the nonsense suppression was no more than 0.026.
With U8G G59U the nonsense suppression was no more than 0.026.
In the case of U8G G59U C80G, the nonsense suppression is reported as no more than 0.026.
For U8G G67C, the nonsense suppression was no more than 0.026.
With U8G G73C the nonsense suppression was no more than 0.026.
In the case of U8G G78A, the nonsense suppression is reported as no more than 0.026.
Variant U8G G84A has a nonsense suppression of no more than 0.026.
In the case of U8G G84U, the nonsense suppression is reported as no more than 0.026.
In the case of U8G G86A, the nonsense suppression is reported as no more than 0.026.
